From the antibiotic and cytotoxicity screens of Wong et al. (2023)
The list shows a part of the results.

Key:
HSkMC = human skeletal muscle cells; assay: cytotoxicity call (relative viability < 0.9); details: 10 µM
HepG2 = assay: cytotoxicity call (relative viability < 0.9); details: 10 µM
S. aureus RN4220 = assay: growth inhibition call (relative growth <= 0.2); details: 50 µM

Row | Compound | cytotoxicity call (HSkMC) | cytotoxicity call (HepG2) | growth inhibition call (S. aureus RN4220)
1 | C[C@@H]1CN([C@@H](C)CO)C(=O)c2cccc(NC(=O)Nc3ccc(F)cc3)c2O[C@H]1CN(C)S(=O)(=O)c1cn(C)cn1 | inactive | inactive | inactive
2 | C[C@H](CO)N1C[C@H](C)[C@H](CN(C)C(=O)C2CC2)OCc2cn(nn2)CCCC1=O | inactive | inactive | inactive
3 | C[C@@H]1CN([C@@H](C)CO)C(=O)Cc2cc(NC(=O)C3CCCCC3)ccc2O[C@@H]1CN(C)S(=O)(=O)c1cn(C)cn1 | inactive | inactive | inactive
4 | CCCCC(CC)CCC(CC(C)C)OS(=O)(=O)[O-].[Na+] (stereo not drawn) | inactive | inactive | inactive
5 | COCC#Cc1ccc2c(c1)O[C@@H](CN(C)S(=O)(=O)c1cccc(F)c1)[C@@H](C)CN([C@@H](C)CO)S2(=O)=O | inactive | inactive | inactive
6 | Cc1noc(C)c1NC(=O)Nc1ccc2c(c1)CC(=O)N([C@H](C)CO)C[C@H](C)[C@H](CN(C)Cc1ccc(C(=O)Nc3ccccc3N)cc1)O2 | inactive | inactive | inactive
7 | COc1ccc(CN(C)C[C@@H]2OCCCC[C@@H](C)Oc3ccc(NC(=O)Nc4ccc5c(c4)OCO5)cc3C(=O)N([C@@H](C)CO)C[C@@H]2C)cc1 | inactive | active | inactive
8 | C[C@@H]1CN([C@@H](C)CO)S(=O)(=O)c2ccc(-c3cncnc3)cc2O[C@@H]1CN(C)C(=O)c1ccc2c(c1)OCO2 | inactive | inactive | inactive
9 | Cc1noc(C)c1NC(=O)Nc1ccc2c(c1)CC(=O)N([C@H](C)CO)C[C@@H](C)[C@@H](CN(C)C(=O)NC(C)C)O2 | inactive | inactive | inactive
10 | O/N=C/c1ccc2ccccc2c1 | inactive | inactive | inactive
11 | COc1ccc(S(=O)(=O)N(C)C[C@H]2Oc3c(NC(=O)C4CC4)cccc3C(=O)N([C@H](C)CO)C[C@@H]2C)cc1 | inactive | inactive | inactive
12 | C[C@@H]1CN([C@H](C)CO)C(=O)c2cc(NC(=O)CCC(F)(F)F)ccc2O[C@@H]1CN(C)S(C)(=O)=O | inactive | inactive | inactive
13 | O=C(C[C@@H]1CC[C@H]2[C@@H](COC[C@@H](O)CN2S(=O)(=O)c2ccc(Oc3ccccc3)cc2)O1)NCCN1CCCCC1 | inactive | inactive | inactive
14 | COC(=O)/C=C/c1ccc(C(=O)NCC(=O)N[C@@H](CCC(=O)OC)C(=O)N[C@@H](CC(C)C)C(N)=O)cc1 | inactive | inactive | inactive
15 | CCCNC(=O)N1C[C@]2(CCN(CC2)S(=O)(=O)c2ccc(cc2)OC)c2c(n(c3cc(ccc23)OC)C)[C@@H]1CO | inactive | active | inactive
16 | C[C@@H]1CCCCO[C@H](CN(C)Cc2ccc(C(F)(F)F)cc2)[C@@H](C)CN([C@@H](C)CO)C(=O)c2cc(NC(=O)Nc3ccc(F)cc3)ccc2O1 | inactive | active | inactive
17 | C[C@@H]1CN([C@@H](C)CO)S(=O)(=O)c2ccc(C#CC3(O)CCCC3)cc2O[C@H]1CN(C)C(=O)c1ccncc1 | inactive | inactive | inactive
18 | O=C(C[C@H]1C=C[C@H](NC(=O)c2ccncc2)[C@@H](CO)O1)NCc1ccncn1 | inactive | inactive | inactive
19 | O=c1c(O)c(-c2ccc(O)cc2)oc2cc(O)cc(O)c12 | inactive | inactive | inactive
20 | CN1CCc2onc(Cn3ccnc3)c2C1 | inactive | inactive | inactive
21 | C[C@H]1CN([C@@H](C)CO)C(=O)c2cc(NS(=O)(=O)c3cccs3)ccc2O[C@@H]1CN(C)Cc1ccc(-c2ccccc2)cc1 | inactive | inactive | inactive
22 | COc1ccc(S(=O)(=O)N(C)C[C@H]2OCCCC[C@@H](C)Oc3ccc(NS(=O)(=O)c4ccc(Cl)cc4)cc3C(=O)N([C@@H](C)CO)C[C@H]2C)cc1 | inactive | active | inactive
23 | COc1ccc(NC(=O)N(C)C[C@H]2Oc3ccc(NS(C)(=O)=O)cc3C(=O)N([C@@H](C)CO)C[C@H]2C)cc1 | inactive | inactive | inactive
24 | COCC(=O)N(C)C[C@H]1Oc2cc(C#CCN(C)C)ccc2S(=O)(=O)N([C@H](C)CO)C[C@@H]1C | inactive | inactive | inactive
25 | C[C@H](CO)N1C[C@H](C)[C@H](CN(C)C(=O)c2ccccc2)OCCCC[C@H](C)Oc2ccc(NS(=O)(=O)c3ccc(Cl)cc3)cc2C1=O | inactive | inactive | inactive
26 | CCC(=O)N1C[C@]2(CN(C2)C(=O)CN2CCOCC2)c2c([nH]c3cc(ccc23)OC)[C@@H]1CO | inactive | inactive | inactive
